Among all 320,000 compounds or so, about 9,100 (2.8%) were called active. The inconclusive results got no clear call from the source; some entries with a clear call stand among them for comparison. Calls follow the shape of the dose curve; as a rule, active = well fitted activation curve with a large enough effect; inconclusive = small, poorly fitted or top-dose-only effect; inactive = no such curve, though single readings can be large or run the other way. Potencies beside an inconclusive call are fits to weak or partial responses and may not hold up.
Experiment: qHTS Assay for Rab9 Promoter Activators; also: nearly all actives have a fitted effect of over 60% in size
Details: Huh7 Rab9 promoter-luciferase reporter, luminescence, 24 h; series mostly up to 9.22 µM
In short: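 Rab9 promoter-driven luciferase in stably transfected Huh7 cells; 1500 cells/well rested 2 h, exposed to compound in DMSO for 24 h at 37 °C, 5% CO2. Luminescence read 10 min after adding luciferase reagent at ambient temperature.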
Potency is read from the fitted curve at half-maximal effect; tags tell the direction and shape of the fitted curve.

Potency, inactive:
O=C(CP(=O)(c1ccccc1)c1ccccc1)Nc1nc2ccc(Cl)cc2s1
COc1cc(/C=C2\SC(N)=NC2=O)cc(Br)c1O
Clc1cccc(N2CCN(CCNc3nc4ccccc4n4cnnc34)CC2)c1
Cc1ccc(S(=O)(=O)N2CCN(Cc3cc(C(C)(C)C)ccc3O)CC2)cc1
CCC(C)(C)NC(=O)CN(Cc1ccccc1Cl)C(=O)CCC(=O)Nc1cc(C)ccn1
CN(C)S(=O)(=O)c1ccc(NC(=O)COC(=O)C2COc3ccccc3O2)cc1 (configuration not stated)
CN1C(=O)CC(C(=O)Nc2ccccc2F)SC1=Nc1ccc2c(c1)OCO2 (configuration not stated)
CC(=O)c1c(C)n(-c2ccc(Br)cc2)c2ccc(O)cc12
CCN(CC)CCNC(=O)c1cc(Nc2ccc(OC)c(OC)c2)nc2ccccc12
COc1ccccc1CNC(=O)C1COc2ccccc2O1 (configuration not stated)
COc1ccc(OCCNC(=O)CCCO)cc1
Cc1cccc(NC(=O)c2sc3ncn(CC(=O)N4CCN(c5ccccn5)CC4)c(=O)c3c2C)c1
CCN1CCCC1CNC(=O)C1CCN(C(=O)c2cc3sccc3n2Cc2ccc(F)cc2)CC1 (configuration not stated)
CCN(CC)S(=O)(=O)c1ccc2c(c1)N(CC(=O)N1CCCC1)C(=O)CO2
Cc1nc2c3ccccc3nc(SCC(=O)N3CC(C)CC(C)C3)n2n1 (configuration not stated)
COc1ccc(OCC(=O)Nc2ccc(NC(=O)c3ccco3)cc2)cc1

Potency, active:
CC(C)c1ccc(NC(=O)c2sccc2-n2cccc2)cc1 2.82 µM
CNc1sc(C(=O)c2ccccc2F)c(N)c1-c1nc2ccccc2s1 4.47 µM
Cc1cc(C(=O)NCCC2=CCCCC2)c(C)o1 10 µM
CC(/C=N/NC(=O)c1nn(C)c(C)c1Br)=C\c1ccccc1 3.55 µM
COc1ccc2cc(/C(C)=N/NC(=O)C3CC3)ccc2c1 2.82 µM
COc1ccc(-c2cc(-c3ccccc3O)[nH]n2)cc1 3.16 µM
O=C(Nc1ccc(N=Nc2ccccc2)cc1)c1ccccc1Cl 2.51 µM
CC1=CN2C(=N)/C(=C/c3ccco3)C(=O)N=C2S1 1.78 µM
O=C(O)c1ccc(NC2=Nc3cccc4cccc2c34)cc1 1.58 µM
Cc1ccc(C(=O)Nc2nc3ccccc3c(=O)s2)cc1 1.26 µM

Potency, inconclusive:
Clc1cc2nc(-c3cccnc3Cl)[nH]c2cc1Cl 0.316 µM [activator, partial curve]
S=C(NCCc1ccccc1)NCC1CCCO1 (configuration not stated) 4.47 µM [activator, partial curve]
O=C(Nc1ccc2nc(-c3ccccc3)[nH]c2c1)c1cccs1 2.82 µM [activator, single point]
Cc1ccccc1-c1nnc(-c2cccs2)o1 5.62 µM [activator, single point]
Cc1cccc(NC(=O)c2cc3c(s2)-c2c(C)cccc2OC3)n1 3.55 µM [activator, partial curve]
COc1ccc2sc3ccccc3c(=O)c2c1OC 5.62 µM [activator, single point]
Cc1scc(C(=O)NNC(=S)NCC(C)C)c1C 3.98 µM [activator, partial curve]
Cc1csc2ncc(C(=O)Nc3ccccc3F)c(=O)n12 3.98 µM [activator, single point]
CCOc1ccc2nc(NC(=O)CSc3nnc(-c4ccncc4)n3CC3CCCO3)sc2c1 (configuration not stated) 3.55 µM [activator, partial curve]
O=C(Nc1ccc(OCc2ccccc2)cc1)c1cccnc1 3.16 µM [activator, single point]
Cc1nn(CCOc2ccccc2)c(=O)n1-c1ccccc1 3.55 µM [activator, single point]
CCCCOC(=O)Nc1cccc(C(C)=O)c1 1.41 µM [activator, partial curve]
Cc1ccc2[nH]c(=O)c(-c3nc4ccccn4c3NCc3ccco3)cc2c1 3.16 µM [activator, partial curve]
O=C(NC(=S)Nc1ccccc1Cl)c1ccco1 6.31 µM [activator, single point]
CCOc1ccc2nc(NC(=O)CSC3=NCCS3)sc2c1 5.62 µM [activator, single point]
COC(=O)c1sc(NC(=O)COc2ccccc2)nc1C 3.55 µM [activator, single point]
O=C(O)c1ccc(Cn2nnc3sc4c(c3c2=O)CCCC4)cc1 3.55 µM [activator, partial curve]
CC(=O)Nc1ccc(N/C=C/C(=O)c2ccc(Cl)cc2)cc1 1.12 µM [activator, partial curve]
Cc1ccc(C(=O)Nc2ccc([N+](=O)[O-])cn2)o1 2.82 µM [activator, partial curve]
CC(=O)Nc1ccc2nc(NC(=O)CCc3ccccc3)sc2c1 3.55 µM [activator, partial curve]
Cc1cc(C)nc(N/N=C/c2ccccc2Cl)n1 5.62 µM [activator, single point]
NC(=O)c1c(/N=C/c2cccs2)sc2c1CCCC2 0.891 µM [activator, partial curve]
CC(=O)Nc1ccc(OCC(O)Cn2ccnc2)cc1 (configuration not stated) 6.31 µM [activator, single point]
Nc1nc(SC23CC4CC(CC(C4)C2)C3)ns1 3.98 µM [activator, partial curve]
CCCc1ccc(OCc2ccc(C(=O)NN)o2)c(OC)c1 2.24 µM [activator, partial curve]
O=S1(=O)N=C(N2CCc3ccccc3C2)c2ccccc21 1 µM [activator, single point]

— PubChem BioAssay AID485297 (National Center for Advancing Translational Sciences (NCATS), 2010)
